The test system of data set [1] is CC1(C)S[C@@H]2[C@H](NC(=O)[C@H](N)c3ccc(O)cc3)C(=O)N2[C@H]1C(=O)O. Nature of the data set: (§1) The compound was tested against Bacteroides fragilis FP784 and its stability towards beta-lactamase was evaluated.
Data set [2] deals with Cc1nnc(SC2=C(C(=O)O)N3C(=O)[C@@H](NC(=O)Cc4ccccc4)[C@H]3SC2)s1. Described as §1.
Data set [3] relates to CC1(C)S[C@@H]2[C@H](NC(=O)[C@H](N)c3ccc(O)cc3)C(=O)N2[C@H]1C(=O)O. Description: (§2) The compound was tested against Bacteroides fragilis FP784 and its stability towards beta-lactamase relative to cephaloridine was evaluated.
Data set [4] concerns Cc1nnc(SC2=C(C(=O)O)N3C(=O)[C@@H](NC(=O)Cc4ccccc4)[C@H]3SC2)s1. The data set is described as §2.

As usually defined, the Km is the concentration of substrate that gives half-maximal velocity.

Consider “Beta-lactamase (Escherichia coli K-12) (sequence not shown)”, for which the Michaelis-Menten constant (Km) in data set [1] was 27.3 µg/mL; in data set [2] it was 14.5 µg/mL. For the same substance, the Vmax in data set [3] is 0.0175; in data set [4] it was 0.351.
